Measurements as given in publication PMC4336329 (PLoS ONE, 2015).
The campaign covered roughly 310,000 compounds. About 14,000 (4.5%) showed an effect of 50% or more. Effects have a minus sign here. This is one part of the list. Where a SMILES comes first, the peptide text is derived from it. [ ]: non-standard residue; d: D form. The star is where a group is joined. Phe(4-Me) = Cc1ccc(C[CH](N)C(=O)O)cc1; Bz = O=C(c1ccccc1)*

These molecules were tested against human ether-à-go-go-related gene (hERG) potassium channel (human, UniProt Q12809) (assay: primary screen, population patch clamp on CHO cells stably expressing hERG).
Sequence of human ether-à-go-go-related gene (hERG) potassium channel (Q12809 whole entry, looked up): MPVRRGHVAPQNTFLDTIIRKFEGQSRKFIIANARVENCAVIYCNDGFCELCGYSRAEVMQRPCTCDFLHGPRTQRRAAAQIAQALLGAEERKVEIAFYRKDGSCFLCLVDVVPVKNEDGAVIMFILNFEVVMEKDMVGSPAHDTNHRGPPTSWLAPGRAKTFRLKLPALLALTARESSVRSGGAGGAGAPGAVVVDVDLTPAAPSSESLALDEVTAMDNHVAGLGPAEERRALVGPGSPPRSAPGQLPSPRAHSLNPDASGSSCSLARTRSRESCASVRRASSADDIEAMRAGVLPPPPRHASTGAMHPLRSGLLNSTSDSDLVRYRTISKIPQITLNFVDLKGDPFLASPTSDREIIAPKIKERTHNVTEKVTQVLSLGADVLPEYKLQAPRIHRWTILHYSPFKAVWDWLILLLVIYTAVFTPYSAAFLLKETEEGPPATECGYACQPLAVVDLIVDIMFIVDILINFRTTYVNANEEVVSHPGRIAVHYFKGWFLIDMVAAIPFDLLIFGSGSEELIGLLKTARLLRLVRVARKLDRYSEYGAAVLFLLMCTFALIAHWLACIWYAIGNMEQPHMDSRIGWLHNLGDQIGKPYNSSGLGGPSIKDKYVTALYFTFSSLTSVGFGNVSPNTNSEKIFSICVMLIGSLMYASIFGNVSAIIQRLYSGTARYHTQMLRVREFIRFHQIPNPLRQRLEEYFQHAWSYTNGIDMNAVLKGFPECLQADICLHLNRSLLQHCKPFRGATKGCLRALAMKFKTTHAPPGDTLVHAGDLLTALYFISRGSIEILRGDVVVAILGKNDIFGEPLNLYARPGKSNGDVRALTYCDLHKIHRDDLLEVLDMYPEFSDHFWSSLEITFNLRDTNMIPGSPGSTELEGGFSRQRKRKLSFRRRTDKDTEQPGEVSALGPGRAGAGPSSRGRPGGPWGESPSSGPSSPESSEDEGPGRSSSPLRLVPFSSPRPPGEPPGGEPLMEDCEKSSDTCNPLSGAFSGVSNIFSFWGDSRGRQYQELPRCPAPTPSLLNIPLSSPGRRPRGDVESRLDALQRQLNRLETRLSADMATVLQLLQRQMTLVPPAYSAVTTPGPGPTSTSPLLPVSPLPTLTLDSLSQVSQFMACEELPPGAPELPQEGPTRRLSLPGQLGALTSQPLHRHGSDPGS
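Also: peak tail current of the secondary pulse compared with the same well before compound.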

| Compound | hERG current change (%, negative = inhibition) at 10uM [%] |
| --- | --- |
| Cc1noc(C)c1CSCC(=O)Nc1nc2c(F)cc(F)cc2s1 | 4.47 |
| CCOCCc1nnc(NC(=O)C2CC(=O)N(c3ccc(OCC)cc3)C2)s1 (centres unmarked) | -18.1 |
| Cc1ccc(S(=O)(=O)Oc2ccc3c(c2)O/C(=C\c2cccnc2)C3=O)cc1 | 1.51 |
| CCOC(=O)c1sc(NC(=O)c2cccnc2)nc1C | 16.8 |
| Cc1cccc(N(CC(=O)NC2CCCC2)C(=O)CNC(=O)c2ccco2)c1C | 19.2 |
| COc1ccccc1-c1nnc(SCC(=O)Nc2ccc(S(N)(=O)=O)cc2)n1N | -7.19 |
| Cc1ncoc1C(=O)NCCC(c1ccccc1)c1ccccc1 | -1.86 |
| COc1cc(OC)cc(-c2c(-c3ccc(F)cc3)c3cc(-c4cccc5[nH]ccc45)ccc3n2C)c1 | 7.74 |
| Cc1nnc(NC(=O)CSc2nnc(CC(=O)Nc3ccccc3F)n2C)s1 | -4.32 |
| CCC1CCCCN1CCCNC(=O)CCC(=O)N1CCOc2ccccc21 (centres unmarked) | -15.6 |
| O=C(Nc1ccccc1C(=O)O)c1ccc(NC(=O)C2CCCCC2)cc1 | 4.77 |
| CC(=O)N[C@@H](Cc1ccc(OC(F)(F)F)cc1)C(=O)O | 13.3 |
| CC(C)NC(=O)CSc1nnc(-c2ccc3ncccc3c2)n1C | 19 |
| COc1ccc(CCNC(=O)C2CC(c3c(Cl)cccc3Cl)=NO2)cc1 (centres unmarked) | -26 |
| CCC(C)n1c(O)c(C=NCC2CCCO2)c(=O)[nH]c1=S (centres unmarked) | 4.05 |
| CC(=O)Nc1cccc(NC(=O)C2CC(=O)N(CCc3ccc(F)cc3)C2)c1 (centres unmarked) | 5.99 |
| CCOC(=O)C1CCN(S(=O)(=O)c2cn(C)c(C)n2)CC1 | 21.3 |
| Cc1ccc(C)c(Sc2ccc(NC(=O)CCN3C(=O)NC4(CCCC4)C3=O)cc2)c1 | -10.3 |
| Cn1c(CNC(=O)C2CCC(=O)N(CCc3cccc(F)c3)C2)nc2ccccc21 (centres unmarked) | -26.2 |
| COC(=O)C1CC(O)CN1C(=O)c1ccco1 (centres unmarked) | 10.6 |
| COc1ccccc1CNC(=O)COc1ccc(Br)c(C)c1 | -3.95 |
| CC1=CC(C)(C)N(C(=O)CNC2CCCC2)c2cc(C)ccc21.O=C(O)C(=O)O | 9.74 |

| Compound | hERG current change (%, negative = inhibition) at 10uM [%] |
| --- | --- |
| C1=Nc2ccccc2CN1c1ccccc1.Cl | -18.1 |
| Cc1ccc(/C=N/n2c(-c3ccncc3)n[nH]c2=S)o1 | 8.31 |
| CC(C)=CCc1c(-c2ccc(O)cc2O)oc2c3c(cc(O)c2c1=O)OC(C)(C)C=C3 | 17.6 |
| COc1ccc2sc(N(CCN(C)C)C(=O)c3ccc4ccccc4c3)nc2c1.Cl | -0.0157 |
| CCOC(=O)N1CCC(NC(=O)c2cc(S(=O)(=O)N3CCC4(CC3)OCCO4)ccc2F)CC1 | -6.9 |
| Cn1c(CNc2nc(-c3ccccc3)cs2)nnc1SCC(=O)c1ccccc1 | -6.96 |
| CC1CCc2c(sc3ncnc(NS(=O)(=O)c4cccs4)c23)C1 (centres unmarked) | 15.9 |
| COCc1[nH]nc2c1C(c1cccc(OC)c1)C(C#N)=C(N)O2 (centres unmarked) | -7.26 |
| COc1ccc(N2C(=O)C(C)(C)C2c2c(O)ccc3ccccc23)cc1 (centres unmarked) | 26.9 |
| CCc1ccc(NC(=O)C2CCN(S(C)(=O)=O)CC2)cc1 | 2.73 |
| O=c1c2sc(-c3ccccc3)cc2nc2n1CCC2 | -9.78 |
| CCCCC(=O)N(Cc1ccc(-c2ccccc2-c2nn[nH]n2)cc1)[C@H](C(=O)O)C(C)C | 20.5 |
| NC(=O)CSc1nnnn1-c1cccc(Cl)c1 | 12 |
| CCCCC(=O)Nc1ccc(C)c(S(=O)(=O)N2CCCCCC2)c1 | -40.6 |
| OCC1(Cc2ccccc2C(F)(F)F)CCN(Cc2ccncc2)CC1 | -13.8 |
| O=C(NCc1ccc(Cl)cc1)C(=O)NCC1OCCN1S(=O)(=O)c1cccs1 (centres unmarked) | -3.4 |
| CCOC(=O)C1(CC2CCCCO2)CCN(C(=O)Nc2ccccc2SC)CC1 (centres unmarked) | 3.42 |
| Cc1ccc(NC(=O)O/N=C/c2c(C)nn(C(C)(C)C)c2C)cc1Cl | -8.04 |
| CC(C)(C)OC(=O)NOCC(=O)N(Cc1ccccc1)CC(O)COc1ccccc1 (centres unmarked) | -0.0122 |
| O=C(CNC(=O)c1ccccc1F)N/N=C\C=C\c1ccccc1 | 3.76 |
| N#Cc1ccc(NC(=O)Cn2cnc(S(=O)(=O)N3CCCCC3)c2)cc1 | 13.3 |
| C=CCNc1nc(Cl)nc(Nc2ccc([N+](=O)[O-])cc2)n1 | 6.9 |

| Compound | hERG current change (%, negative = inhibition) at 10uM [%] |
| --- | --- |
| COc1ccc([N+](=O)[O-])c(OC)c1C(=O)NC(=O)Nc1c(C)cccc1C | 5.84 |
| CCOc1ccccc1NS(=O)(=O)c1ccc2[nH]c(=O)[nH]c2c1 | 14.9 |
| Cc1coc2c(C)c3oc(=O)cc(-c4ccccc4)c3cc12 | 9.59 |
| O=C(N/N=C/c1c[nH]c2ccccc12)c1ccccc1 | 18.8 |
| C=CCSc1nnc2c(n1)-c1cccc3cccc-2c13 | 1.84 |
| COc1cccc2cc(C(=O)C3=C(O)C(=O)N(CCN4CCOCC4)C3c3cccc(Cl)c3)oc12 (centres unmarked) | 16.4 |
| O=C(NCCc1ccccc1)c1ccccc1NC(=O)C1CCCCC1C(=O)O (centres unmarked) | 2.78 |
| COc1ccc(-n2c(SCc3ccc([N+](=O)[O-])cc3)nnc2-c2ccc(C)cc2)cc1 | 1.03 |
| CCN(CC(=O)NCCc1ccccc1)S(=O)(=O)c1ccc(Br)cc1 | -32.3 |
| COc1ccc(OC)c(CC(=O)O)c1 | 10.8 |
| CCOc1ccc(NC(=O)CSc2nc3ccsc3c(=O)n2CCC(=O)O)cc1 | 0.362 |
| CCOc1ccc(N2C(=O)CC(Sc3nc(CC(C)C)ccc3C#N)C2=O)cc1 (centres unmarked) | 16.6 |
| COc1cccc(NC(=O)CN(C)C(=O)CCNS(=O)(=O)c2ccc(C)cc2)c1 | -4.63 |
| C=CCN1C(=O)C(C)(C)Nc2ccccc21 | 6.7 |
| O=C1CCC(=O)N1CC1CC2CCC1C2 (centres unmarked) | 8.48 |
| COc1ccc(S(=O)(=O)NCC(c2ccco2)N2CCc3ccccc32)cc1 (centres unmarked) | -24.3 |
| CCOC(=O)NC(=O)CN1C(=O)NC2(CCc3ccccc32)C1=O (centres unmarked) | 20.8 |
| CC(C)(C)C(=O)COC(=O)c1cc(-c2ccncc2)nc2ccccc12 | -8.43 |
| COCC1=C(C(=O)OC)C(c2cccs2)n2ncnc2N1 (centres unmarked) | 12.2 |
| COc1cc(NC(=O)C2CCCN2S(=O)(=O)c2ccc3c(c2)CC(C)N3C(C)=O)cc(OC)c1 (centres unmarked) | -47.9 |
| CC(C)(CNC(=O)c1ccc(NS(=O)(=O)c2ccc(F)cc2)cc1)N1CCOCC1 | -0.466 |
| C=CCN(c1ccccc1Cl)S(=O)(=O)c1cccc(C(=O)NCCc2ccc(OC)cc2)c1 | 3.82 |

| Compound | hERG current change (%, negative = inhibition) at 10uM [%] |
| --- | --- |
| Cc1nc2ccc(NC(=O)N3CCC(c4ccccc4)C3)cc2nc1C (centres unmarked) | -11.4 |
| O=C(NCc1nnc2c(C(F)(F)F)cc(Cl)cn12)c1cccs1 | -5.07 |
| O=C(c1ccc(Oc2ccc([N+](=O)[O-])cc2Cl)cc1)N1CCCC1 | -32.2 |
| CCOc1cc(/C=N/NC(=O)CN2CCCCC2)ccc1O | -5.51 |
| Cc1noc(NS(=O)(=O)c2ccc(NC(=O)CCN3C(=O)c4ccccc4C3=O)cc2)c1C | 10.6 |
| COc1ccc(CNC2CCN(Cc3ccccc3)CC2)cc1 | -54.2 |
| CCOC(=O)C1=C(C)NC2=C(C(=O)C(C(=O)OCC)C(c3ccc(OC)cc3)C2)C1c1ccccn1 (centres unmarked) | 12.8 |
| COc1ccc(C)cc1NC(=O)C/C(C)=N/NC(=O)Cc1cccc2ccccc12 | 7.97 |
| CCOc1ccc(C(=O)c2cc([N+](=O)[O-])ccc2Cl)cc1 | -15.6 |
| COc1ccc(-n2c(COc3cccc(C)c3)nnc2SCC(=O)O)cc1 | 20.7 |
| CCNC(=S)NCc1ccc(F)cc1 | 5.03 |
| COc1ccccc1CNC(=O)COC(=O)Cc1ccc(Cl)cc1 | 8.51 |
| O=C(NC1CCS(=O)(=O)C1)c1cn(-c2ccccc2)nc1-c1ccccc1 (centres unmarked) | -4.04 |
| CCc1nnc(NC(=O)c2ccc(COc3ccccc3Cl)o2)s1 | 20.3 |
| COc1ccccc1OCCOc1ccc(/C=C2/C(=N)N3OC(C)=CC3=NC2=O)cc1OC | -12.5 |
| Cc1ccc(CC(NC(=O)c2ccccc2)C(=O)NC(CC(C)C)C(=O)O)cc1 (centres unmarked) (Bz-[Phe(4-Me)]-Leu-OH; configuration not given here) | 16.7 |
| CCN1CCN(CCCNC(=O)C2CCN(c3nnc(-n4cccc4)s3)CC2)CC1 | -3.56 |
| COCc1nnc(NC(=O)CCc2ccc(OC)cc2)s1 | 20.3 |
| O=C(CSc1nc2ccccc2s1)NCCOc1ccc(Cl)cc1 | -3.32 |
| COc1ccc(CC(=O)Nc2ccc(C)cc2O)cc1S(=O)(=O)N1CCOCC1 | 2.52 |
